PubChem BioAssay AID743255 (National Center for Advancing Translational Sciences (NCATS), 2014)
Hit rate of the full screen: of about 390,000 compounds, about 910 (0.23%) were called active. About 5% were inconclusive and are not listed. Calls come from the whole dose curve; as a rule, active = well fitted inhibition curve with a large enough effect; inconclusive = small, poorly fitted or top-dose-only effect; inactive = no such curve, though single readings can be large or run the other way. The list shows a part of the results, in another mix than the full data.

Target: Ubiquitin carboxyl-terminal hydrolase 1 (Homo sapiens) (UniProt O94782)
Experiment: Inhibitors of USP1/UAF1: Primary Screen; note: nearly all actives have a fitted effect of over 60% in size
Details: recombinant USP1/UAF1, Ub-Rhodamine cleavage fluorescence; activity change, negative = inhibition: at 57.1 µM (top of the series)
Excerpt: Deubiquitinating enzymes (DUBs) are a class of enzymes that can cleave isopeptide bond formed between the C-terminal carboxylate of ubiquitin and a lysine side-chain amino group on the target protein. Among them, ubiquitin specific proteases (USPs) constitute the largest DUB family. Human USPs are emerging as promising targets for pharmacological intervention because of their connection to a number of human diseases, including prostate, colon and breast cancer (1, 2), pediatric acute lymphoblastic leukemia (3), and familial cylindromatosis (4). The advantage of inhibiting USPs lies in the potential specificity of therapeutic intervention that can lead to better efficacy and reduce nonspecific side effects. In a collaboration between the University of Delaware and the NIH Chemical Genomics Center, a high-throughput screen assay was developed to screen for USP1/UAF1 inhibitors. This miniaturized assay has a fluorescent read-out and is used to screen the NIH Molecular Libraries Small Molecule Repository (MLSMR) in order to identify a small molecule that inhibits USP1. NIH Chemical Genomics Center [NCGC] NIH Molecular Libraries Probe Centers Network [MLPCN] MLPCN Grant: DA030552 Assay Submitter (PI): Zhihao Zhuang, University of Delaware 1. Priolo, C., et al. (2006) The isopeptidase USP2a protects human prostate cancer from apoptosis. Cancer Res 66, 8625-8632 2. Popov, N., et al. (2007) The ubiquitin-specific protease USP28 is required for MYC stability. Nat Cell Biol 9, 765-774 3. De Pitta, C., et al. (2005) A leukemia-enriched cDNA microarray platform identifies new transcripts with relevance to the biology of pediatric acute lymphoblastic leukemia. Haematologica 90, 890-898 4. Kovalenko, A., et al. (2003) The tumour suppressor CYLD negatively regulates NF-kappaB signalling by deubiquitination. Nature 424, 801-805
3 microliters of reagents (buffer in columns 3 and 4 as negative control and 1nM USP1/UAF1 complex in columns 1, 2, and 5-48) are dispensed into Greiner black solid bottom 1536-well assay plates. Compounds are then transferred via Kalypsys pin tool equipped with 1536-pin array (10nl slotted pins, V&P Scientific, San Diego, CA). Following an incubation step of 15 min at room temperature, 1ul of Ub-Rho substrate (150nM final concentration) is added to initiate the reaction. The plates are immediately centrifuged at 1000 rpm for 15 seconds, and subsequently transferred to a ViewLux high-throughput CCD imager (PerkinElmer) wherein kinetic measurements of fluorescence are acquired using 480 nm excitation/540 nm emission filter set (6 reads every 60 seconds, see Table 1). All reagents are diluted in an assay buffer consisting of 50mM HEPES (pH 7.8), 0.5mM EDTA, 0.1 mg/ml BSA, 1mM TCEP, and 0.01% Tween-20.
% is set by controls: 0 for no effect and ±100 for the full control effect; potency is the fitted concentration of half-maximal effect.

Sequence of UniProt O94782 (O94782 whole entry, looked up): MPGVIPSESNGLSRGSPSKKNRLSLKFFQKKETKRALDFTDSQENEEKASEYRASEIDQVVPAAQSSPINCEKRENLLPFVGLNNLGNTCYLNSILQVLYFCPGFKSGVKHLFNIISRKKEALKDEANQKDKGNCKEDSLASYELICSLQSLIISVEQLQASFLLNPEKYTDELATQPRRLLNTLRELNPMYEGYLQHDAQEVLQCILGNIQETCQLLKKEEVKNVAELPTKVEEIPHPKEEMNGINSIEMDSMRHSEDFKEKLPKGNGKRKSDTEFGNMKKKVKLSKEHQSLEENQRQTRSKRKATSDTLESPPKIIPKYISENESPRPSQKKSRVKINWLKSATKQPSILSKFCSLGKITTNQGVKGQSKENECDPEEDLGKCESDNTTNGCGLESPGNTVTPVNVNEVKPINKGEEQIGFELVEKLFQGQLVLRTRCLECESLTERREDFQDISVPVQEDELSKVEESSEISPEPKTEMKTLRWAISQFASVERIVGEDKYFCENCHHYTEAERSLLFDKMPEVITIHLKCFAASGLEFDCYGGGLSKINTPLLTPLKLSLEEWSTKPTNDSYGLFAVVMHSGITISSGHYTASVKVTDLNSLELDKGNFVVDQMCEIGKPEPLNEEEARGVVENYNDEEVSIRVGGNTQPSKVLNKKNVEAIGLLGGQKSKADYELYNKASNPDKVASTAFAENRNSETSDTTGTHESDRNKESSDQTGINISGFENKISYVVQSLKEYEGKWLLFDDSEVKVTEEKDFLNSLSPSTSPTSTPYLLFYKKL

SMILES	activity change, negative = inhibition	Potency
COc1ccc([C@H]2C[C@@H](n3cc(COC(=O)c4ccccc4)nn3)[C@H](O)CN2C(=O)c2cccs2)cc1	inactive: -16.1%	–
COCCn1c(=N)c(C(=O)NCc2ccco2)cc2c(=O)n3cc(C)ccc3nc21	inactive: -15.8%	–
CCc1ccc(/C=C2/SC(=S)N(CCCC(=O)Nc3ccccc3C(=O)O)C2=O)cc1	inactive: -19.1%	–
CCc1ccc(CN(C(=O)c2cc(=O)c3ccc(C)cc3o2)C2CCS(=O)(=O)C2)cc1 (stereo not drawn)	inactive: 47.4%	–
COC(=O)C1=C(C(=O)OC)[C@]2([C@@H]3CCCCN[C@@H](Cc4ccccc4)C(=O)N3Cc3ccccc3)C=C[C@H]1O2	inactive: -27.9%	–
C[C@@H]1CN([C@@H](C)CO)C(=O)CCCn2nncc2CO[C@H]1CN(C)S(=O)(=O)c1ccc2c(c1)OCCCO2	inactive: 3.22%	–
O=C1C=C(NCCc2cc(Br)c(O)c(Br)c2)C(=O)c2ncccc21	–	active: 3.55 µM
CC(=O)c1sc2nc(-c3cccs3)cc(C(F)(F)F)c2c1N	inactive: 271%	–
CN(C)c1ccc(CNS(=O)(=O)c2csc(C(N)=O)c2)cc1	inactive: -8.27%	–
NC1=NC[C@@H](Cc2ccc(O)cc2)N1CCC12CC3CC(CC(C3)C1)C2	inactive: -15.9%	–
CCOC(=O)c1cc2c(c(CCO)n1)[C@@H](CCO)N(S(=O)(=O)C(C)(C)C)C2	inactive: -16.5%	–
C=CC[C@@H](CC(=O)OC(C)(C)C)C(=O)OC[C@@H]1CCCN1C(=O)[C@@H](CC=C)CC(=O)N[C@H](CO)Cc1ccccc1	inactive: -23.5%	–
O=C(C[C@@H]1C/C=C\C[C@H](Cc2ccc(F)cc2)C(=O)OC[C@@H](Cc2c[nH]c3ccccc23)NC1=O)NCCO	inactive: -22%	–
CCc1cc[n+](C2=C([O-])c3ccccc3C(=O)/C2=N\S(=O)(=O)c2cccs2)cc1	–	active: 17.8 µM
CC(=O)Nc1cccc(C(=O)/C=C/c2ccc(N(C)C)cc2)c1	–	active: 5.62 µM
CC1(C)O[C@H]2CC(=O)OCC23[C@H]2CC[C@@]4(C)[C@H](c5ccoc5)OC(=O)[C@H]5O[C@]54[C@]2(C)C(=O)C[C@@H]13 (stereo partly drawn)	inactive: -12%	–
O=C(Nc1ccc(F)c(F)c1)c1ccc(F)c(S(=O)(=O)N2CCC3(CC2)OCCO3)c1	inactive: -28%	–
Cc1ccc(-n2nc(CO)c(C(=O)NC(C)c3ccccc3)n2)cc1C (stereo not drawn)	inactive: 21.4%	–
C=CC[C@H](CC(=O)N(CCO)Cc1ccccc1)C(=O)N[C@@H](COC(=O)[C@H](CC=C)CC(=O)OC(C)(C)C)Cc1c[nH]c2ccccc12	inactive: -16.2%	–
C[n+]1c(-c2ccccc2)cc2c(=Cc3ccccc3)c3ccccc3n21	–	active: 3.98 µM
C=CC[C@@H](CC(=O)NCCO)C(=O)N[C@@H](C)COC(=O)[C@@H](CC=C)Cc1ccc(F)cc1	inactive: -29.4%	–

SMILES	activity change, negative = inhibition	Potency
Cc1ccc(Cn2ccnc2SCC(=O)NC2CCCC2)cc1	inactive: 0.453%	–
CCOc1ccc(CNC(=O)C2CCN(c3nnc(-n4c(C)ccc4C)s3)CC2)cc1	inactive: -22.4%	–
CCOC(=O)N1CCc2c(sc3c2c(=O)n(Cc2ccccc2)c(=O)n3Cc2cccc(C)c2)C1	inactive: -18.9%	–
CCc1ccc(CNC(=O)Cn2nc(-c3ccc(C)cc3)ccc2=O)cc1	inactive: 27.4%	–
CC(C)OC(=O)N(C)C[C@H]1OCc2cnnn2CCCC(=O)N([C@H](C)CO)C[C@H]1C	inactive: 9.14%	–
COCCCNC(=O)c1ccc2c3c(onc13)-c1ccccc1C2=O	–	active: 20 µM
CCOC(=O)N(C)C[C@@H]1OCc2cnnn2CCCC(=O)N([C@H](C)CO)C[C@H]1C	inactive: -14.4%	–
CCCCN(CCCC)c1nc2ccccc2nc1C(C#N)C(=O)NCCCOC (stereo not drawn)	inactive: 103%	–
COc1ccc(NC(=O)CN2C(=O)COc3ccc(S(=O)(=O)N4CCCCC4)cc32)cc1OC	inactive: -17.5%	–
COCCN1C=C2C(=O)C(C)(OC(=O)CCC(=O)OC)C(=O)C(Br)=C2C=C1c1ccc(OC)cc1 (stereo not drawn)	–	active: 25.1 µM
COc1ccc(OC)c(S(=O)(=O)NCCS(=O)(=O)N2CCN(c3ccccc3)CC2)c1	inactive: -5.01%	–
Nc1ccn([C@H]2C[C@H](O)[C@@H](CO)O2)c(=O)n1	inactive: -24.1%	–
CCCCC(CC)CNC(=O)CCCCn1c(=O)[nH]c2ccsc2c1=O (stereo not drawn)	inactive: -6.07%	–
CCN(CC)S(=O)(=O)c1ccc2c(c1)c(=O)c(C(=O)NCCc1ccccc1)cn2C	inactive: -20.2%	–
Cc1[nH]cnc1CN1CCc2c(c3ccccc3n2C)C1=O	–	active: 35.5 µM
Cc1c(Cl)cccc1NC(=S)/C(=C(\[O-])c1ccc(Cl)s1)[n+]1ccccc1	inactive: -4.46%	–
CCc1nc2ccc(C(=O)N3CCN(c4cc(C)ccc4C)CC3)cc2nc1CC	inactive: -2.16%	–
CCN(CC)c1ccc(N=C2C(=O)Nc3ccccc32)cc1	–	active: 31.6 µM
COc1ccc(-n2nc3c(N4CCC(C(=O)NC5CCCCC5)CC4)nnc(C)c3c2C)cc1	inactive: -24.6%	–
Nc1nc(SCC(=O)N2N=C3/C(=C/c4ccco4)CCCC3C2c2ccco2)n[nH]1 (stereo not drawn)	inactive: -24.5%	–
C=CC[C@H](CC(=O)N(CCO)Cc1ccccc1)C(=O)N[C@@H](COC(=O)[C@@H](CC=C)CC(=O)OC(C)(C)C)Cc1c[nH]c2ccccc12	inactive: -26.2%	–

SMILES	activity change, negative = inhibition	Potency
CCOc1ccc(C2C(C#N)=C(N)SC(N)=C2C#N)cc1OCC	–	active: 31.6 µM
C[C@@H]1CN([C@H](C)CO)C(=O)CCCn2cc(nn2)CO[C@H]1CN(C)S(=O)(=O)c1ccc2c(c1)OCCCO2	inactive: -10.2%	–
COC(C/C=C/C(=O)[C@H](C)OCc1ccccc1)OC	inactive: -20.8%	–
COC(C[C@@H]1O[C@@H]1[C@@H](O)[C@@H](C)OCc1ccccc1)OC	inactive: -22.1%	–
COc1cc(/C=N/NC(=O)c2ccncc2)ccc1O	inactive: -29.3%	–
CC(C)(C)OC(=O)C[C@H]1C/C=C\C[C@H](CC(=O)N[C@@H](CO)Cc2ccccc2)C(=O)N[C@H](C(C)(C)C)COC1=O	inactive: -23.4%	–
COC(=O)CCC(=O)OC1(C)C(=O)C2=CN(C3CC3)C(c3ccc(OC)cc3)=CC2=C(Br)C1=O (stereo not drawn)	–	active: 22.4 µM
Cc1cc(C)n2c(Nc3ccc4c(c3)OCCO4)c(-c3ccccc3)nc2n1	inactive: -18.8%	–
Oc1ccc(C[C@@H]2CNCCN2CCc2cccc(F)c2)cc1	inactive: -23.8%	–
CN(C)CCC(c1ccc(Br)cc1)c1ccccn1 (stereo not drawn)	–	inactive
CCOC(=O)C1CCN(c2cc3c(cc2NC(=O)c2ccccc2Cl)n(C)c(=O)n3C)CC1	inactive: -23.6%	–
O=C1N[C@@H](Cc2ccccc2)C(=O)N2[C@H]1C[C@]1(Br)c3ccccc3N(S(=O)(=O)c3ccc(F)cc3)[C@H]21	inactive: -18.3%	–
C=CC[C@@H](Cc1ccc(F)cc1)C(=O)OC[C@H]1CCCN1C(=O)[C@H](CC=C)CC(=O)N[C@H](CO)Cc1ccccc1	inactive: -15.9%	–
O=c1[nH]c(Nc2ccc(F)cc2)cc2ccccc12	–	active: 12.6 µM
C=CCC[C@H](Cc1ccc(F)cc1)C(=O)OC[C@@H](C)NC(=O)[C@H](CC=C)CC(=O)NCCO	inactive: 19.7%	–
C[C@H](CO)N1C[C@H](C)[C@@H](CN(C)C(=O)Nc2ccccc2)Oc2ccc(NC(=O)c3ccncc3)cc2C1=O	inactive: -10.2%	–
C=CC[C@@H](CC(=O)OC(C)(C)C)C(=O)OC[C@@H]1CCCN1C(=O)[C@@H](CC=C)CC(=O)N[C@@H](CO)Cc1ccccc1	inactive: -22.6%	–
CCCCN(C)C(=O)C(Cc1ccccc1)NS(=O)(=O)c1ccc2c(c1)c(=O)n(C)c(=O)n2C (stereo not drawn)	inactive: -6.09%	–
CCOC(=O)[C@@H]1[C@H]2COc3ccc(Br)cc3[C@H]2N2C(=O)N(c3ccc(Br)cc3)C(=O)[C@]12C	inactive: 4.06%	–
C[C@@H]1CN([C@H](C)CO)S(=O)(=O)c2ccc(Br)cc2O[C@@H]1CN(C)C(=O)Nc1ccc(C(F)(F)F)cc1	inactive: -20.1%	–
CCN(CC)CCNC(=O)c1cn(CC)c2ccc(S(=O)(=O)N3CCc4ccccc4C3)cc2c1=O	inactive: -7.76%	–

SMILES	activity change, negative = inhibition	Potency
COc1ccc(/C=C2\C(=O)NC(=O)c3ccccc32)cc1OC	–	active: 1.78 µM
Cc1ccc(-c2nn(CCC(N)=O)c(=O)c3ccccc23)cc1	inactive: -21.9%	–
Nc1c(C(=O)NCC2CCCO2)sc2nc3c(c(-c4ccco4)c12)CC/C3=C\c1ccco1 (stereo not drawn)	–	active: 28.2 µM
COc1cc(NCCCCCCN)c2ncccc2c1OC	–	active: 8.91 µM
CCOc1cc(CNc2ccc(O)cc2)cc(Cl)c1OCc1ccccc1	–	active: 28.2 µM
C[C@H](CO)N1C[C@H](C)[C@@H](CN(C)C(=O)c2ccc3ccn(C)c3c2)OCc2cn(nn2)CCCC1=O	inactive: -26.4%	–
COc1cc(CCNC2=CC(=O)c3ncccc3C2=O)ccc1O	–	active: 17.8 µM
O=c1c(/C=N/Nc2ccccc2)c(Sc2nnnn2-c2ccccc2)nc2ccccn12	–	active: 3.16 µM
COc1ccc(N=C(N(C)C)P(=O)(N(C)C)N(C)C)cc1	inactive: -5.61%	–
C=CCN1C=C2C(=O)C(C)(OC(=O)CCC(=O)OC)C(=O)C(Br)=C2C=C1c1ccc(OC)cc1 (stereo not drawn)	–	active: 31.6 µM
CCOCCCNC(=O)C(c1ccc(OC)cc1)N(Cc1cccs1)C(=O)CNC(C)=O (stereo not drawn)	inactive: -11.6%	–
C[C@H](CO)N1C[C@H](C)[C@H](CN(C)S(=O)(=O)c2ccccc2F)OCc2cnnn2CCCC1=O	inactive: -11.6%	–
C[C@H]1CCC[C@]2(O[C@H](CCO)C[C@H](O)[C@H]2O)O1	inactive: -11.7%	–
COc1cccc(S(=O)(=O)N(C)C[C@@H]2Oc3cc(Br)ccc3S(=O)(=O)N([C@@H](C)CO)C[C@@H]2C)c1	inactive: -15.2%	–
C[C@H]1CN([C@@H](C)CO)C(=O)CCCn2nncc2CO[C@@H]1CN(C)C(=O)c1ccc2ccn(C)c2c1	inactive: -15%	–
CCOc1cc(C=C2C(=O)c3ccccc3C2=O)ccc1OCC(=O)Nc1ccc(C)cc1	inactive: 230%	–
COc1ccc(OCC(=O)N(Cc2sccc2C)C2CCS(=O)(=O)C2)cc1 (stereo not drawn)	inactive: -21.3%	–
CCOC(=O)[C@@H]1[C@H]2COc3cc(OC)ccc3[C@@H]2N2C(=O)N(c3ccc(Br)cc3)C(=O)[C@@]12C	inactive: -23.5%	–
Cc1ccc2[nH]cc(/C=C/c3cc[n+](C)cc3)c2c1	–	active: 28.2 µM
C#CCNC(=O)C1=C[C@@H](c2ccc3c(c2)OCO3)C[C@@H](OCCCCO)O1	inactive: -26.8%	–
